Measured values reported in PMC12040169 (PLOS Biology, 2025).
The other results are listed elsewhere or left out.

system: T1, C. trachomatis L2/434/Bu expressing GFP (CTL2-GFP); set-up: species or system HeLa; C. trachomatis total inclusion area by high-content imaging, normalised to DMSO; settings: total inclusion area; 28.5 h, 10 µM; inhibitor
T1 construct: L2/434/Bu GFP intracellular growth in HeLa cells
How it was run: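 After bulk GFP and resorufin fluorescence reads, cells were fixed, stained with Hoechst and imaged by high-content microscopy. Inclusion area and number (GFP) stood in for chlamydial growth, nuclei count (Hoechst) for host cell viability. MICs were derived as for the bulk readout.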

In order of falling “% of control remaining” value:
1. Nc1ncc(-c2ccccc2CO)nc1NC1CCOCC1 [CBK063799]  153.742
2. CCS(=O)(=O)N1CCN(C(=O)c2ccc3nc(C)c(N(CCOC)Cc4ccc(OC)cc4)n3c2)CC1 [CBK146153]  136.171
3. COC(=O)c1cc(C)sc1NC(=S)Nc1ccccc1[N+](=O)[O-] [CBK267047]  131.648
4. OC1CCC(Nc2nc(-c3ccccc3)cn3ccnc23)CC1 (stereo not drawn) [CBK037329]  126.125
5. Cc1ccc(-c2nc3ccccc3[nH]2)cc1NC(=O)CCCc1ccccc1 [CBK265789]  119.967
6. COC(=O)c1c(NC(=O)COc2ccccc2C(C)C)sc2c1CCCC2 [CBK266722]  119.374
7. O=C(c1ccco1)N1C2CCC1Cn1c(nc3ccccc3c1=O)C2 (stereo not drawn) [CBK284452]  119.327
8. O=C(CCCn1nnc2ccccc2c1=O)NCc1cccc(Cl)c1 [CBK294446]  113.98
9. CC(=O)Nc1ccc(Nc2ncnc3scc(-c4ccccc4)c23)cc1 [CBK264930]  111.752
10. Cc1cccc(NC(=S)N(CCN(C)C)Cc2cc3cc(C)cc(C)c3[nH]c2=O)c1 [CBK135105]  107.49
11. COc1cc(S(=O)(=O)NCc2ccc3c(c2)OCO3)c(OC)cc1Cl [CBK264972]  106.391
12. O=C(CC1CCS(=O)(=O)C1)NC1(c2ccc(Cl)cc2)CC1 (stereo not drawn) [CBK282773]  106.009
13. CN1C(=O)CC2(C1=O)C(=O)N(C)c1ccc(F)cc12 (stereo not drawn) [CBK075290]  105.642
14. O=C(NCCc1ccc(Cl)cc1)C1CCN(C(=O)CCc2ccccc2F)C1 (stereo not drawn) [CBK285931]  105.525
15. CC(C)(C)c1ccc(/C=C/C(=O)n2cccn2)cc1 [CBK263645]  105.484
16. Cc1ccccc1CN1CCN(CC2CC3C=CC2C3)CC1 (stereo not drawn) [CBK263402]  105.356
17. COC(=O)[C@H]1CCc2ccccc2N1C(=O)C1CC1 [CBK285518]  105.089
18. Nc1cccc(-c2cc(Nc3ccc(C4CCCCC4)cc3)ncn2)c1 [CBK091191]  104.257
19. O=S(=O)(Nc1ccc(-c2nc3cccnc3s2)cc1)c1ccccc1 [CBK287547]  102.66
20. COc1ccc([C@@]23CC[C@@H](NC(=O)Nc4ccc(F)cc4)C[C@@H]2N(C)CC3)cc1OC [CBK036458T]  102.202
21. COc1ccc(CN2CCCC(c3nccnc3-c3cccc(NC(C)=O)c3)C2)cc1 (stereo not drawn) [CBK286135]  101.063
22. CCOc1ccc(C2(C)C(=O)N(CN3CCOCC3)C(=O)N2CN2CCOCC2)cc1 (stereo not drawn) [CBK261359]  100.798
23. CC(=O)Nc1ccc(NC(=O)CN(C2CCCCC2)S(C)(=O)=O)cc1 [CBK266755]  100.754
24. O=C(O)/C=C/C(=O)N(Cc1ccc2c(c1)OCO2)C1CC(=O)N(c2ccccc2)C1=O (stereo not drawn) [CBK262786]  99.5605
25. O=C(CCC(F)(F)F)NCc1csc(-c2ccccc2)n1 [CBK092342]  96.8877
26. O=C(O)CCSc1ccnc2ccccc12 [CBK122524C]  95.7123
27. Cc1ccc(CN2C[C@@H](N)[C@H](c3cn(C)c4cnccc34)C2)o1 [CBK285180]  94.6367
28. NC(CCCCNC(=O)c1ccccc1)C(=O)O (stereo not drawn) [CBK261087]  93.659
29. CCC(C)(C)c1ccc(S(=O)(=O)N2CCCN(Cc3c(-c4ccccc4)noc3C)CC2)cc1 [CBK062888]  92.099
30. COc1nccnc1N1CCN(CC(N)=O)CC1 [CBK084219]  92.0281
31. CSCCOc1nccnc1N1CCCC1 [CBK115757]  91.7844
32. O=C(NC1(CN2CCCCC2)CCCCC1)NS(=O)(=O)c1ccc(Cl)cc1 [CBK022858]  87.485
33. CN1CCc2nc(SCC(=O)c3ccc(-c4ccccc4)cc3)c(C#N)c(-c3cccs3)c2C1 [CBK267447]  87.2934
34. CN(CC(=O)Nc1ccccc1C(N)=O)S(=O)(=O)c1ccc(Br)cc1 [CBK268648]  86.9932
35. Cc1ccc(C)c(N2CCN(S(=O)(=O)c3ccc(-c4ccccc4)cc3)CC2)c1 [CBK100692]  86.8446
36. Cc1[nH]c2ccccc2c1C(=O)CSc1n[nH]c(N)n1 [CBK268056]  86.5615
37. Cc1cc(NC(=O)CC2CC2)c2ccccc2n1 [CBK116257]  84.6215
38. CCn1cc(C(=O)N2CCCCC2c2nc3cc(C)ccc3[nH]2)cn1 (stereo not drawn) [CBK283869]  80.8528
39. CN1CCC(N2CCN(C(=O)c3ccc(-c4cccc(C(F)(F)F)c4)o3)CC2)CC1 [CBK149085]  79.9801
40. O=C(c1cccnc1)C1CCN(C(=O)c2cc(F)cc(F)c2)CC1 [CBK283746]  79.8998
41. Cc1ccc(C(=O)C(C)OC(=O)c2cc(-c3ccccc3)nc3ccccc23)cc1 (stereo not drawn) [CBK264067]  79.596
42. CCOC(=O)c1sc(Sc2nnc(C(F)(F)F)n2C)c2c1CC(C)(C)CC2=O [CBK005649]  75.9582
43. CCSC1CCC(N(C)CC(=O)NCc2ccco2)C1 (stereo not drawn) [CBK304823]  73.8491
44. NC(=O)c1c(F)cccc1-c1cc(NCCO)nc2[nH]ccc12 [CBK306689]  71.5503
45. CC(=O)c1ccc(S(=O)(=O)N2CCCCC2CNC(=O)c2ccco2)cc1 (stereo not drawn) [CBK051472]  69.7146
46. O=S(=O)(c1ccc(-c2ccc(S(=O)(=O)N3CCOCC3)cc2)cc1)N1CCOCC1 [CBK261366]  66.6765
47. O=C(Nc1cccc(N2CCNCC2)c1)c1cccnc1 [CBK029414T]  57.8438
48. Cc1nc(CN(C)C2CCN(Cc3ccc4c(c3)CCC4)C2)no1 (stereo not drawn) [CBK304052]  54.0427
49. COc1cc([C@@]23CCC(=O)C[C@@H]2N(C)CC3)ccc1OCc1ccccc1 [CBK049727]  53.3386
50. CCC(CCO)CNc1ncnc2ccc(S(C)(=O)=O)cc12 (stereo not drawn) [CBK305157]  50.7782
51. NC(=O)CSc1nnc(-c2ccncc2)[nH]1 [CBK026179]  43.6967
